{"source": "the antibiotic and cytotoxicity screens of Wong et al. (2023)", "key": {"[1]": {"test_system": "HSkMC (human skeletal muscle cells)", "assay": "cytotoxicity call (relative viability < 0.9)", "conditions": "10 µM"}, "[2]": {"test_system": "HepG2", "assay": "cytotoxicity call (relative viability < 0.9)", "conditions": "10 µM"}, "[3]": {"test_system": "S. aureus RN4220", "assay": "growth inhibition call (relative growth <= 0.2)", "conditions": "50 µM"}}, "note": "This is one part of the list.", "data": [{"smiles": "C[C@@H]1CCCCO[C@@H](CN(C)S(=O)(=O)c2ccc(F)cc2)[C@@H](C)CN([C@H](C)CO)C(=O)c2cc(NC(=O)c3ccccc3)ccc2O1", "values": [{"measurement": "cytotoxicity call", "setting": "[1]", "result": "inactive"}, {"measurement": "cytotoxicity call", "setting": "[2]", "result": "inactive"}, {"measurement": "growth inhibition call", "setting": "[3]", "result": "inactive"}]}, {"smiles": "COc1ccccc1-c1ccc2c(c1)O[C@@H](CN(C)S(=O)(=O)c1ccccc1)[C@H](C)CN([C@@H](C)CO)S2(=O)=O", "values": [{"measurement": "cytotoxicity call", "setting": "[1]", "result": "inactive"}, {"measurement": "cytotoxicity call", "setting": "[2]", "result": "inactive"}, {"measurement": "growth inhibition call", "setting": "[3]", "result": "inactive"}]}, {"smiles": "C[C@@H]1CCCCO[C@H](CN(C)C(=O)Nc2ccc(C(F)(F)F)cc2)[C@H](C)CN([C@H](C)CO)C(=O)c2cc(NC(=O)Nc3cccc4ccccc34)ccc2O1", "values": [{"measurement": "cytotoxicity call", "setting": "[1]", "result": "inactive"}, {"measurement": "cytotoxicity call", "setting": "[2]", "result": "inactive"}, {"measurement": "growth inhibition call", "setting": "[3]", "result": "inactive"}]}, {"smiles": "CNC[C@H]1OCCCC[C@@H](C)Oc2ccc(NC(=O)c3ccncc3)cc2C(=O)N([C@@H](C)CO)C[C@@H]1C", "values": [{"measurement": "cytotoxicity call", "setting": "[1]", "result": "inactive"}, {"measurement": "cytotoxicity call", "setting": "[2]", "result": "inactive"}, {"measurement": "growth inhibition call", "setting": "[3]", "result": "inactive"}]}, {"smiles": "C[C@H]1CCCCO[C@@H](CN(C)C(=O)Cc2ccccc2)[C@@H](C)CN([C@@H](C)CO)C(=O)c2cc(NS(=O)(=O)c3ccc(F)cc3)ccc2O1", "values": [{"measurement": "cytotoxicity call", "setting": "[1]", "result": "inactive"}, {"measurement": "cytotoxicity call", "setting": "[2]", "result": "active"}, {"measurement": "growth inhibition call", "setting": "[3]", "result": "inactive"}]}, {"smiles": "CCNC(=O)C[C@H]1CC[C@H](NC(=O)C2CC2)[C@@H](CO)O1", "values": [{"measurement": "cytotoxicity call", "setting": "[1]", "result": "inactive"}, {"measurement": "cytotoxicity call", "setting": "[2]", "result": "inactive"}, {"measurement": "growth inhibition call", "setting": "[3]", "result": "inactive"}]}, {"smiles": "C[C@H]1CN([C@@H](C)CO)C(=O)Cc2cc(NS(=O)(=O)c3ccc(F)cc3)ccc2O[C@H]1CN(C)C(=O)Nc1cccc2ccccc12", "values": [{"measurement": "cytotoxicity call", "setting": "[1]", "result": "inactive"}, {"measurement": "cytotoxicity call", "setting": "[2]", "result": "inactive"}, {"measurement": "growth inhibition call", "setting": "[3]", "result": "inactive"}]}, {"smiles": "CC[N+](C)(CC)CCOC(=O)C(O)(c1ccccc1)C1CCCCC1.[Br-]", "note": "(stereo not given)", "values": [{"measurement": "cytotoxicity call", "setting": "[1]", "result": "inactive"}, {"measurement": "cytotoxicity call", "setting": "[2]", "result": "inactive"}, {"measurement": "growth inhibition call", "setting": "[3]", "result": "inactive"}]}, {"smiles": "Cc1noc(C)c1NC(=O)Nc1ccc2c(c1)C(=O)N([C@@H](C)CO)C[C@@H](C)[C@H](CN(C)S(C)(=O)=O)O2", "values": [{"measurement": "cytotoxicity call", "setting": "[1]", "result": "inactive"}, {"measurement": "cytotoxicity call", "setting": "[2]", "result": "inactive"}, {"measurement": "growth inhibition call", "setting": "[3]", "result": "inactive"}]}, {"smiles": "Cc1onc(C(=O)O)c1[N+](=O)[O-]", "values": [{"measurement": "cytotoxicity call", "setting": "[1]", "result": "inactive"}, {"measurement": "cytotoxicity call", "setting": "[2]", "result": "inactive"}, {"measurement": "growth inhibition call", "setting": "[3]", "result": "inactive"}]}, {"smiles": "COc1ccc(NC(=O)Nc2ccc3c(c2)[C@H]2C[C@@H](CC(=O)NCc4ccccn4)O[C@@H](CO)[C@H]2O3)cc1", "values": [{"measurement": "cytotoxicity call", "setting": "[1]", "result": "inactive"}, {"measurement": "cytotoxicity call", "setting": "[2]", "result": "inactive"}, {"measurement": "growth inhibition call", "setting": "[3]", "result": "inactive"}]}, {"smiles": "COCC#Cc1ccc2c(c1)O[C@H](CN(C)S(C)(=O)=O)[C@@H](C)CN([C@@H](C)CO)S2(=O)=O", "values": [{"measurement": "cytotoxicity call", "setting": "[1]", "result": "inactive"}, {"measurement": "cytotoxicity call", "setting": "[2]", "result": "inactive"}, {"measurement": "growth inhibition call", "setting": "[3]", "result": "inactive"}]}, {"smiles": "COCC(=O)N(C)C[C@H]1Oc2cc(C#CCN(C)C)ccc2S(=O)(=O)N([C@@H](C)CO)C[C@@H]1C", "values": [{"measurement": "cytotoxicity call", "setting": "[1]", "result": "inactive"}, {"measurement": "cytotoxicity call", "setting": "[2]", "result": "inactive"}, {"measurement": "growth inhibition call", "setting": "[3]", "result": "inactive"}]}, {"smiles": "COc1ccc(CN(C)C[C@@H]2Oc3ccc(NC(=O)Nc4cccc5ccccc45)cc3CC(=O)N([C@H](C)CO)C[C@@H]2C)cc1", "values": [{"measurement": "cytotoxicity call", "setting": "[1]", "result": "inactive"}, {"measurement": "cytotoxicity call", "setting": "[2]", "result": "inactive"}, {"measurement": "growth inhibition call", "setting": "[3]", "result": "inactive"}]}, {"smiles": "C[C@H](CO)N1C[C@H](C)[C@@H](CN(C)C(=O)Cc2ccccn2)Oc2cc(-c3ccc(C(=O)N(C)C)cc3)ccc2S1(=O)=O", "values": [{"measurement": "cytotoxicity call", "setting": "[1]", "result": "inactive"}, {"measurement": "cytotoxicity call", "setting": "[2]", "result": "inactive"}, {"measurement": "growth inhibition call", "setting": "[3]", "result": "inactive"}]}, {"smiles": "O=C(C[C@@H]1C[C@H]2c3cc(NS(=O)(=O)c4ccc(F)cc4)ccc3O[C@H]2[C@H](CO)O1)NCc1cccc(F)c1", "values": [{"measurement": "cytotoxicity call", "setting": "[1]", "result": "inactive"}, {"measurement": "cytotoxicity call", "setting": "[2]", "result": "inactive"}, {"measurement": "growth inhibition call", "setting": "[3]", "result": "inactive"}]}, {"smiles": "Cc1cc(O)c2c(c1)C(=O)c1c(c(O)cc(O)c1-c1c(O)cc(O)c3c1C(=O)c1cc(C)cc(O)c1C3=O)C2=O", "values": [{"measurement": "cytotoxicity call", "setting": "[1]", "result": "inactive"}, {"measurement": "cytotoxicity call", "setting": "[2]", "result": "inactive"}, {"measurement": "growth inhibition call", "setting": "[3]", "result": "inactive"}]}, {"smiles": "O=C(COC(=O)/C=C/c1cn(-c2ccccc2)nc1-c1ccc2c(c1)OCCO2)N[C@H]1CCS(=O)(=O)C1", "values": [{"measurement": "cytotoxicity call", "setting": "[1]", "result": "inactive"}, {"measurement": "cytotoxicity call", "setting": "[2]", "result": "inactive"}, {"measurement": "growth inhibition call", "setting": "[3]", "result": "inactive"}]}, {"smiles": "COc1ccc(NC(=O)Nc2ccc3c(c2)C(=O)N([C@H](C)CO)C[C@H](C)[C@@H](CN(C)CC2CC2)OCCCC[C@H](C)O3)cc1", "values": [{"measurement": "cytotoxicity call", "setting": "[1]", "result": "inactive"}, {"measurement": "cytotoxicity call", "setting": "[2]", "result": "inactive"}, {"measurement": "growth inhibition call", "setting": "[3]", "result": "inactive"}]}, {"smiles": "Cc1ccc(S(=O)(=O)Nc2ccc3c(c2)C(=O)N([C@H](C)CO)C[C@@H](C)[C@H](CN(C)S(=O)(=O)c2cn(C)cn2)O3)cc1", "values": [{"measurement": "cytotoxicity call", "setting": "[1]", "result": "inactive"}, {"measurement": "cytotoxicity call", "setting": "[2]", "result": "inactive"}, {"measurement": "growth inhibition call", "setting": "[3]", "result": "inactive"}]}, {"smiles": "C[C@@H]1CCCCO[C@H](CN(C)Cc2ccc(C(F)(F)F)cc2)[C@@H](C)CN([C@H](C)CO)C(=O)c2cc(NS(=O)(=O)c3ccccc3)ccc2O1", "values": [{"measurement": "cytotoxicity call", "setting": "[1]", "result": "inactive"}, {"measurement": "cytotoxicity call", "setting": "[2]", "result": "inactive"}, {"measurement": "growth inhibition call", "setting": "[3]", "result": "inactive"}]}, {"smiles": "C[C@H]1CN([C@@H](C)CO)C(=O)c2cc(NC(=O)CCCN(C)C)ccc2O[C@@H]1CN(C)Cc1ccncc1", "values": [{"measurement": "cytotoxicity call", "setting": "[1]", "result": "inactive"}, {"measurement": "cytotoxicity call", "setting": "[2]", "result": "inactive"}, {"measurement": "growth inhibition call", "setting": "[3]", "result": "inactive"}]}, {"smiles": "COc1cccc(S(=O)(=O)Nc2ccc3c(c2)[C@H]2C[C@@H](CC(=O)NCC(F)(F)F)O[C@@H](CO)[C@H]2O3)c1", "values": [{"measurement": "cytotoxicity call", "setting": "[1]", "result": "inactive"}, {"measurement": "cytotoxicity call", "setting": "[2]", "result": "inactive"}, {"measurement": "growth inhibition call", "setting": "[3]", "result": "inactive"}]}, {"smiles": "COc1ccccc1-c1ccc2c(c1)O[C@H](CN(C)C(=O)c1cccnc1)[C@@H](C)CN([C@H](C)CO)S2(=O)=O", "values": [{"measurement": "cytotoxicity call", "setting": "[1]", "result": "inactive"}, {"measurement": "cytotoxicity call", "setting": "[2]", "result": "inactive"}, {"measurement": "growth inhibition call", "setting": "[3]", "result": "inactive"}]}, {"smiles": "C[C@@H]1CN([C@H](C)CO)C(=O)c2cccc(NC(=O)C3CCOCC3)c2O[C@@H]1CN(C)C(=O)Nc1ccc2c(c1)OCO2", "values": [{"measurement": "cytotoxicity call", "setting": "[1]", "result": "inactive"}, {"measurement": "cytotoxicity call", "setting": "[2]", "result": "inactive"}, {"measurement": "growth inhibition call", "setting": "[3]", "result": "inactive"}]}]}
